# According to the supplement of paper PMC7826260:
# This is one part of the list. Each Rep nickase domain was tested in vitro on the same pool of single strands (3 µM enzyme, 1 h, 37 °C); shown is the middle of each 90-letter strand. Values are log2 of uncut reads against the no-enzyme pool; strong cutting gives strongly negative numbers. There is no active / inactive call. The scaling is to total reads; where an enzyme cuts many sequences, the uncut ones exceed 0.
# How the values were obtained:
# Assay in all cases: uncleaved DNA left, log2 of reads against the no-enzyme library (log2 ratio); higher = less cleavage (more negative = more Rep cleavage of the k-mer); sequences stand for … in CTCGTCCG…ACCGGAGA
# [1] = test system: T1, Rep nickase domain of Muscovy duck circovirus
# T1 sequence (residues 1-111, tag not shown): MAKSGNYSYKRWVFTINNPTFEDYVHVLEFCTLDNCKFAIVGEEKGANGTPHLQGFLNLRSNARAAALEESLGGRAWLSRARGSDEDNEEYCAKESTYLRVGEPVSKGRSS
# Method: (§1)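 A pool of 90-nt single-stranded DNAs with seven random bases just before the constant AC of the nick site (name = the seven bases) was cut by 3 µM recombinant His6-SUMO-tagged Rep nickase domain (300 nM DNA, 50 mM HEPES pH 8.0, 50 mM NaCl, 1 mM MnCl2, 1 h, 37 °C, three replicates). Uncut DNA was amplified and sequenced.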
# [2] = test system: T2, Rep nickase domain of banana bunchy top virus
# T2 sequence (residues 1-94, tag not shown): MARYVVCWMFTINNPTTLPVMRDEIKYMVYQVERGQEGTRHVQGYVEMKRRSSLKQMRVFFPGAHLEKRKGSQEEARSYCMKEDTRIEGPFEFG
# Method: as §1
# [3] = test system: T3, Rep nickase domain of cabbage leaf curl virus
# T3 sequence (residues 1-116, tag not shown): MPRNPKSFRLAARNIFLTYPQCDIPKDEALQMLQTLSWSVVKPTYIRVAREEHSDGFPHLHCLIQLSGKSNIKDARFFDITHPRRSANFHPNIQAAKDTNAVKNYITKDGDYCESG
# Method: as §1
# [4] = test system: T4, Rep nickase domain of chickpea chlorotic dwarf virus
# T4 sequence (residues 1-124, tag not shown): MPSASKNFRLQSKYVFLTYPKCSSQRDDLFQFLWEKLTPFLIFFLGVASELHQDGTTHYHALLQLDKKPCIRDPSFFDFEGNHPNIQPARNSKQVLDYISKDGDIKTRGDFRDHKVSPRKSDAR
# Method: as §1
# [5] = test system: T5, Rep nickase domain of faba bean necrotic yellows virus
# T5 sequence (residues 1-98, tag not shown): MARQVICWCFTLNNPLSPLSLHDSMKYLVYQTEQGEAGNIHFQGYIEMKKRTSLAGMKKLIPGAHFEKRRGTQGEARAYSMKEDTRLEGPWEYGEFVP
# Method: as §1
# [6] = test system: T6, Rep nickase domain of maize striate mosaic virus
# T6 sequence (residues 1-117, tag not shown): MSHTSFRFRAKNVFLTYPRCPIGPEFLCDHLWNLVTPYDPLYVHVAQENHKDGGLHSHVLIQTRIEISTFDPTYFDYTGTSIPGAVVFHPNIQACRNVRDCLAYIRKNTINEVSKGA
# Method: as §1
# [7] = test system: T7, Rep nickase domain of porcine circovirus 2
# T7 sequence (residues 2-116, tag not shown): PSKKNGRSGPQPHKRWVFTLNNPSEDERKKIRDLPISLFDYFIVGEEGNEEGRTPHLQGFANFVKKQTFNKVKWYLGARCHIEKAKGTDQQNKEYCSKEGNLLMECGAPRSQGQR
# Method: as §1
# [8] = test system: T8, Rep nickase domain of tomato golden mosaic virus
# T8 sequence (residues 1-124, tag not shown): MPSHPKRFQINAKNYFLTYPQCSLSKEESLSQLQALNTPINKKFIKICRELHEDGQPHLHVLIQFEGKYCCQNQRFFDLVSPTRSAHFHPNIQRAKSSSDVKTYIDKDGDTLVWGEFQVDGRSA
# Method: as §1
# [9] = test system: T9, Rep nickase domain of tomato yellow leaf curl virus
# T9 sequence (residues 1-136, tag not shown): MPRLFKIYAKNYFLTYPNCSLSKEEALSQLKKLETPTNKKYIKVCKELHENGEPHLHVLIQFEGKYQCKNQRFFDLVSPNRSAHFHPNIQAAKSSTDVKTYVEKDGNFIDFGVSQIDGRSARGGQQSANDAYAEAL
# Method: as §1
# [10] = test system: T10, Rep nickase domain of wheat dwarf virus
# T10 sequence (residues 1-137, tag not shown): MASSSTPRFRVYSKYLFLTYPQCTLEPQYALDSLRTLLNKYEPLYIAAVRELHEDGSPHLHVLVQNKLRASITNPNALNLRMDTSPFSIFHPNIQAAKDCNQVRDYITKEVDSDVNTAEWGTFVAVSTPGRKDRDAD
# Method: as §1
Sequence,uncleaved DNA left (log2) [1],uncleaved DNA left (log2) [2],uncleaved DNA left (log2) [3],uncleaved DNA left (log2) [4],uncleaved DNA left (log2) [5],uncleaved DNA left (log2) [6],uncleaved DNA left (log2) [7],uncleaved DNA left (log2) [8],uncleaved DNA left (log2) [9],uncleaved DNA left (log2) [10]
CGCTGTT,-1.94,-0.548,-0.4,-0.841,-0.349,0.438,-2.92,-0.268,-0.318,-0.292
GAGAACA,0.0389,0.0482,0.455,0.0833,0.0246,1.61,-0.0757,0.0282,0.0755,0.142
CGTAGCT,-0.0151,0.0818,0.0809,0.0876,0.035,0.113,0.142,0.0984,-0.12,0.0889
GTCATCA,0.05,0.171,0.308,0.915,-0.0104,1.77,0.165,0.134,0.0889,0.16
GAAAGGA,0.0625,0.0811,0.263,0.279,0.0625,0.357,0.128,0.159,0.00519,0.119
TGCATCT,-0.0785,-0.062,-0.155,-1.5,-0.0687,-0.713,-0.274,-0.043,-0.0293,-0.107
GGGTACA,0.0203,0.189,0.841,2.03,0.144,2.29,0.213,0.00668,-0.0322,0.157
CCGCGAC,0.105,-0.108,-0.0814,0.00294,0.0248,-0.213,-0.083,0.0744,-0.12,-0.0838
ACTCCGA,0.0065,0.0332,-0.223,-0.0099,0.0248,-0.739,0.0973,0.00866,-0.074,-0.103
GTCATCG,0.0569,0.0503,-0.0271,0.243,0.00196,0.392,0.0411,0.0371,0.00125,0.0445
GTAGGCA,0.059,0.0195,0.387,0.975,0.065,1.17,0.0563,-0.0196,0.0675,0.101
TACAACA,-0.131,-0.0304,-0.373,-2.66,0.0345,-0.556,-0.138,-0.00764,-0.012,-0.00035
TAAGCTT,-0.134,-0.149,-3.45,-2.38,0.0243,-0.121,-0.654,-1.76,-0.18,-2.32
CTTCGGT,0.0604,-0.112,0.273,0.465,-0.0816,0.406,0.00189,-0.0473,-0.11,-0.0752
ACGCAAG,-0.0423,-0.048,-0.709,-0.329,-0.0478,-1.2,0.0845,0.0421,0.0131,-0.0902
ACTACTA,0.0423,0.0797,-0.17,-1.75,0.214,-0.645,-0.011,0.0909,0.0701,0.0378
ACCCCGC,-0.0182,-0.0726,-0.5,-0.687,-0.0394,-0.838,0.03,-0.00695,-0.079,-0.137
CGCAGCC,-0.0698,-0.0599,0.147,0.451,-0.155,0.426,-0.086,-0.088,-0.166,-0.158
GGCTCTT,-0.44,-0.0503,0.364,0.547,-0.0788,1.7,-2.23,-0.137,-0.0715,0.0663
CGCATCA,0.16,0.16,0.257,-0.242,0.237,-0.0364,-0.0578,0.0476,0.182,0.231

Sequence,uncleaved DNA left (log2) [1],uncleaved DNA left (log2) [2],uncleaved DNA left (log2) [3],uncleaved DNA left (log2) [4],uncleaved DNA left (log2) [5],uncleaved DNA left (log2) [6],uncleaved DNA left (log2) [7],uncleaved DNA left (log2) [8],uncleaved DNA left (log2) [9],uncleaved DNA left (log2) [10]
TCACGAA,0.142,-0.0652,0.00636,-0.431,0.025,-0.742,0.0585,0.0581,0.0219,-0.0396
TGATTAT,-0.858,0.102,0.272,-0.443,0.115,0.0765,-1.13,0.0489,0.076,-0.0302
CGCGCAG,-0.168,-0.0254,-0.319,-0.193,-0.0438,-0.398,0.142,0.0459,-0.0312,-0.0656
AAATGAA,-0.213,0.0431,-0.226,-0.72,0.0823,-0.567,-1.3,0.0188,-0.0293,-0.048
CAACCGT,-0.0799,-0.0996,-0.752,-2.13,-0.137,-1.29,-0.454,-0.136,-0.208,-0.279
CATAATT,-0.591,-3.26,-0.577,-3.25,-0.0878,-1.03,-3.57,-0.1,-0.224,-0.244
CATGTCC,-0.0192,-0.175,-0.2,-0.673,-0.133,-0.915,-0.19,-0.207,-0.143,-0.25
CAGTCTG,0.0271,0.167,0.158,1.04,0.0715,1.4,0.0255,0.138,0.0734,0.14
CTCGGAC,-0.0479,-0.0751,0.356,1.11,0.0778,1.23,0.0537,0.143,-0.0373,0.0361
TCTGTAA,0.0633,0.0198,-0.0216,-0.48,-0.00938,-0.179,-0.146,-0.0422,0.01,0.064
CGTGGTT,0.0485,0.0345,0.148,-0.561,-0.0571,0.513,-0.31,0.0809,0.0748,0.0567
CGGGAAT,0.175,0.0603,0.788,1.95,0.164,2.2,0.132,0.0204,0.127,0.29
GGAGTTC,0.083,0.0468,0.59,1.3,0.0246,1.99,0.0622,0.148,0.224,0.197
GGACGAA,0.11,0.247,0.939,1.95,0.262,2.26,0.27,0.102,0.168,0.378
TCACGGA,0.0661,0.00828,0.0915,0.277,0.04,-0.0478,0.0978,0.192,-0.0117,0.002
GATATGG,0.0641,0.0246,0.331,0.78,-0.0115,0.388,0.212,0.0444,0.0223,0.0979
AAATTTA,-0.484,0.000692,-1.61,-2.63,-0.106,-1.06,-1.76,-0.196,-0.0527,-0.472
AAGGCGT,0.0668,0.0105,-0.281,0.0682,0.0228,-0.311,0.113,0.0627,0.0425,0.0582
TTACGAA,-0.0429,-0.0993,-0.00127,-1.04,-0.0228,-0.496,-0.125,-0.0328,-0.0608,-0.0798
TATGCCT,-0.0425,-0.309,-1.22,-2.78,-0.0513,-1.07,-0.449,-0.0873,0.00246,-0.124

Sequence,uncleaved DNA left (log2) [1],uncleaved DNA left (log2) [2],uncleaved DNA left (log2) [3],uncleaved DNA left (log2) [4],uncleaved DNA left (log2) [5],uncleaved DNA left (log2) [6],uncleaved DNA left (log2) [7],uncleaved DNA left (log2) [8],uncleaved DNA left (log2) [9],uncleaved DNA left (log2) [10]
CGAACCG,-0.0413,0.0299,-0.748,-0.696,0.0339,-0.985,0.0649,-0.00978,-0.0168,-0.104
TTCTTCC,-0.00113,-0.0791,0.166,-0.195,0.0604,-0.279,-0.00724,-0.164,0.0777,0.0212
ATTAAAT,-0.348,-0.145,-0.0417,-0.567,-0.12,-0.557,-1.81,-0.0119,-0.0807,0.0271
CTCTGCC,-0.0369,-0.0877,-0.201,-0.6,-0.0366,-0.797,-0.413,-0.0907,-0.0577,-0.155
GGCCGTC,-0.0746,0.0296,0.378,0.886,-0.127,1.36,0.0212,-0.0952,-0.0325,0.0365
GGGCATA,0.0228,0.113,0.859,1.99,0.0129,2.24,0.0886,-0.0203,-0.0719,0.0365
TGTTTCG,-0.0133,-0.124,-0.844,-0.19,-0.034,-1.1,-0.0231,-0.152,-0.0281,-0.19
ATGTACC,-0.00505,0.0382,0.0168,-0.304,-0.031,-0.0895,-0.291,-0.00998,-0.0439,-0.0255
TCAGCAG,-0.0224,-0.101,-0.606,-0.733,-0.0529,-1.14,0.167,-0.0707,-0.0413,-0.0519
GGTTTTA,-0.0143,0.107,0.415,0.874,0.119,1.82,0.0576,0.0946,0.106,0.22
GGCTGAG,0.115,-0.0539,0.425,0.997,0.0134,0.587,0.299,0.0728,0.163,0.201
CCGGATT,0.0794,0.0756,0.409,-0.0662,0.0646,1.16,0.0182,0.0793,0.096,-0.0102
TAGTATC,0.0565,-0.242,-0.612,-1.15,-2.78,-0.168,-3.9,-0.153,0.0496,-0.0308
GATTACA,-0.725,-0.146,0.0934,-1.78,-0.0189,0.906,-0.469,0.0569,0.0738,0.0941
GTAGCAG,0.0108,-0.0714,-0.0207,-0.0687,-0.0344,-0.437,0.109,0.062,0.0287,-0.00572
TAGTATT,-3.86,-4.48,-4.14,-3.57,-4.07,-2.73,-4.51,-3.45,-0.142,-4.02
TAGACTG,-0.119,-0.0305,-0.0749,0.569,-0.111,1.62,-0.0538,-0.00424,-0.166,-0.0272
CTAGATT,0.0404,-0.177,-0.00351,-2.11,0.053,-0.233,-1.45,0.0524,0.088,-0.13
GTCCGGA,0.0248,0.0924,0.403,1.01,-0.0204,1.35,0.16,0.128,0.127,0.139
CGCCACT,-0.0606,0.0131,-0.0208,-1.36,0.105,-0.0848,-0.21,-0.109,-0.0175,0.0193
